Common to all, as to assay: Primary Screen for Target Class Profiling of Small Molecule Inhibitors of Methyltransferases
For experiment [1], the target named is Glycine N-methyltransferase (Homo sapiens) (UniProt Q14749). Conditions: purified enzyme, MTase-Glo SAH luminescence; measured here: GNMT inhibition; at 40 µM; stronger effect = lower value. A digest of the protocol: (§1)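 Each enzyme was reacted with SAM and its substrate, with compounds tested once at 40 uM; SAH formed was read by MTase-Glo luminescence.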
In experiment [2] the target is Guanidinoacetate N-methyltransferase (Homo sapiens) (UniProt Q14353). The note with it: purified enzyme, MTase-Glo SAH luminescence; measured here: GAMT inhibition; at 40 µM; stronger effect = lower value. A digest of the protocol: as §1
Experiment [3] addresses Histamine N-methyltransferase (Homo sapiens) (UniProt P50135). The note with it: purified enzyme, MTase-Glo SAH luminescence; measured here: HNMT inhibition; at 40 µM; stronger effect = lower value. A digest of the protocol: as §1
Experiment [4] deals with Nicotinamide N-methyltransferase (Homo sapiens) (UniProt P40261). Conditions: purified enzyme, MTase-Glo SAH luminescence; measured here: NNMT inhibition; at 40 µM; stronger effect = lower value. In outline:
as §1

The target of experiment [5] is Phenylethanolamine N-methyltransferase (Homo sapiens) (UniProt P11086). The note with it: purified enzyme, MTase-Glo SAH luminescence; measured here: PNMT inhibition; at 40 µM; stronger effect = lower value. In outline: as §1

SMILES strings stand for the structures. The list shows a part of the results. Further columns of the screen follow, without active or inactive calls.
% is set by controls: 0 for no effect and ±100 for the full control effect.

Regarding `O=C(CCn1ccc2cc(S(=O)(=O)N3CCCCC3)ccc21)N1CCc2ccccc2C1`, the activity change, negative = inhibition in experiment [1] was 3.44%; in experiment [2], 5.06%; in experiment [3], 2.45%; in experiment [4], -3.92%; in experiment [5], -2.77%.

Regarding `CCOC(=O)c1cc2n(n1)CC(C)(C(=O)NC1CCC(C)CC1)N(c1cccc(F)c1)C2=O` (stereo not given), the activity change, negative = inhibition was 1.25% in experiment [1]; 0.916% in experiment [2]; -2.13% in experiment [3]; 1.18% in experiment [4]; 2.75% in experiment [5].

Take `O=S(=O)(c1ccc2[nH]c3c(c2c1)CCCC3)N1CCc2ccccc21`: the activity change, negative = inhibition amounted to 2.16% in experiment [1]; 3% in experiment [2]; 3.95% in experiment [3]; 0.218% in experiment [4]; 1.27% in experiment [5].

On to `CCc1ccc(-c2cc3n(n2)CC(C)(C(=O)NC2CCCCC2)N(CCCOC(C)C)C3=O)cc1` (stereo not given), for which the activity change, negative = inhibition in experiment [1] is 0.113%; in experiment [2] it was 1.41%; in experiment [3], 2.02%; in experiment [4], -2.35%; in experiment [5], -1.6%.

In the case of `COc1ccc(C(=O)N[C@@H]2CN(c3ncccn3)C[C@H]2CN(C)C)cn1`, the activity change, negative = inhibition in experiment [1] was -3.92%; in experiment [2], -12.4%; in experiment [3] it was -2.52%; in experiment [4], -10.1%; in experiment [5] it was -2.64%.

Take `CCc1cc2c(cc3n2CC(C)(C(=O)NC2CCC(C)CC2)N(Cc2cccs2)C3=O)s1` (stereo not given): the activity change, negative = inhibition in experiment [1] was 1.47%; in experiment [2] it was 0%; in experiment [3], 2.03%; in experiment [4], -3.85%; in experiment [5] it was -0.876%.

As for `CC(=O)N1CCC(C2CCN(C(=O)c3nn(C)c4ccccc34)C2)CC1` (stereo not given), the activity change, negative = inhibition in experiment [1] was -8.97%; in experiment [2], -9.38%; in experiment [3], -3.44%; in experiment [4], -14.8%; in experiment [5], -6.43%.

Take `CCCn1c(=O)c2ccc(C(=O)NC3CCCC3)cc2n2c(=O)n(Cc3ccc(Cl)cc3)nc12`: the activity change, negative = inhibition in experiment [1] was 2.96%; in experiment [2] it was 0%; in experiment [3] it was 4.45%; in experiment [4], 2.72%; in experiment [5], -0.395%.

Take `CCOc1ccc(N2C(=O)c3cc4ccccc4n3CC2(C)C(=O)NC2CCCCCC2)cc1` (stereo not given): the activity change, negative = inhibition in experiment [1] was 2.3%; in experiment [2], 4.23%; in experiment [3], 3%; in experiment [4], -1.93%; in experiment [5] it was -4.09%.

Consider `CC1(C)CC[C@]2(C(=O)O[C@@H]3O[C@H](CO)[C@@H](O)[C@H](O)[C@H]3O)CC[C@]3(C)C(=CCC4[C@@]5(C)C[C@@H](O)[C@H](O)[C@@](C)(CO)C5CC[C@]43C)C2[C@@H]1O` (stereo not given in full), for which the activity change, negative = inhibition in experiment [1] was -3.62%; in experiment [2], -9.05%; in experiment [3], 0.553%; in experiment [4], -18.5%; in experiment [5], 0.481%.

Regarding `O=C(CCCCCCCCC#CI)Oc1ccccc1`, the activity change, negative = inhibition in experiment [1] is -18.5%; in experiment [2], -18.6%; in experiment [3], 11%; in experiment [4], -14.1%; in experiment [5], -4.5%.

Regarding `Cc1cc(C(=O)N2Cc3cnn(C)c3Nc3ccccc32)ccc1CNC(=O)N1CCC[C@H]1C(=S)N1CCCN(C)CC1`, the activity change, negative = inhibition was -10.6% in experiment [1]; -2.06% in experiment [2]; -22.7% in experiment [3]; -18.5% in experiment [4]; -9.04% in experiment [5].

Take `Cc1noc([C@@H]2CN(C(=O)CCc3nc4ccccc4s3)C[C@H]2C(N)=O)n1`: the activity change, negative = inhibition in experiment [1] is -1.97%; in experiment [2], -3.6%; in experiment [3], -0.67%; in experiment [4] it was -4.08%; in experiment [5] it was -2.79%.

As to `COC(=O)C1=CO[C@@H](O[C@@H]2O[C@H](CO)[C@@H](O)[C@H](O)[C@H]2O)[C@@H]2C(CO)=CC[C@]12O`, the activity change, negative = inhibition in experiment [1] came out at 10.3%; in experiment [2], 14%; in experiment [3], 9.52%; in experiment [4] it was 2.27%; in experiment [5], 5.81%.

Take `CC[C@@]1(O)CCN(C(=O)CCc2nc(-c3ccncc3)no2)C[C@H]1O`: the activity change, negative = inhibition in experiment [1] was -1.59%; in experiment [2], -3.09%; in experiment [3] it was -0.284%; in experiment [4], -7.13%; in experiment [5], -4.13%.

`Cc1c(C(=O)N[C@H](c2cnn(C)c2)C2CC(O)C2)sc2nc[nH]c(=O)c12` (stereo not given in full): the activity change, negative = inhibition in experiment [1] is -1.73%; in experiment [2], -3.98%; in experiment [3], 0.52%; in experiment [4], -10.1%; in experiment [5], 9.95%.

For the compound `COc1cccc(CN2CC(C(=O)NCc3cc4ccccc4[nH]3)CCC2=O)c1` (stereo not given), the activity change, negative = inhibition is -23.7% in experiment [1]; -17.4% in experiment [2]; -7.32% in experiment [3]; -17.8% in experiment [4]; -23.1% in experiment [5].

Regarding `COc1cccc(S(=O)(=O)N2CCC(Cc3nncn3C(C)C)CC2)c1`, the activity change, negative = inhibition is 3.16% in experiment [1]; 0.954% in experiment [2]; 13% in experiment [3]; -2.95% in experiment [4]; 9.69% in experiment [5].

In the case of `CCCn1c(=O)c2cc(Cl)ccc2n2c(=O)n(CC(=O)N3CCN(c4ccccc4F)CC3)nc12`, the activity change, negative = inhibition in experiment [1] is -7.91%; in experiment [2] it was 1%; in experiment [3], -0.174%; in experiment [4] it was -16.5%; in experiment [5] it was -7.28%.

With `CC1(C)CC[C@]2(C(=O)O[C@@H]3O[C@H](CO)[C@@H](O)[C@H](O)[C@H]3O)CC[C@]3(C)C(=CCC4[C@@]5(C)CC[C@H](O[C@H]6O[C@H](CO)[C@@H](O)[C@H](O[C@@H]7O[C@H](CO)[C@@H](O)[C@H](O)[C@H]7O)[C@H]6O)C(C)(C)C5CC[C@]43C)[C@@H]2C1` (stereo not given in full), the activity change, negative = inhibition was -0.132% in experiment [1]; 12.6% in experiment [2]; -5.92% in experiment [3]; -3.7% in experiment [4]; 6.12% in experiment [5].

As to `O=C(C1CC1)N1CCCC2(CN[S+](=O)([O-])c3cccnc3O2)C1` (stereo not given), the activity change, negative = inhibition in experiment [1] was -3.67%; in experiment [2], -5.9%; in experiment [3], -1.38%; in experiment [4] it was -7.67%; in experiment [5], 32.9%.

On to `O=c1c2ccccc2n2c(-c3ccc(F)cc3)nnc2n1Cc1ccc(F)cc1`, for which the activity change, negative = inhibition in experiment [1] was found to be 0.62%; in experiment [2], 0%; in experiment [3], 4.67%; in experiment [4], 3.51%; in experiment [5], 3.81%.

For the compound `COCC(=O)NC[C@H]1O[C@@H](CO)[C@@H](O)[C@H]1N1CCN(c2cccc(C(F)(F)F)c2)CC1`, the activity change, negative = inhibition is -5.71% in experiment [1]; -5.62% in experiment [2]; 1.95% in experiment [3]; -2.21% in experiment [4]; 0.403% in experiment [5].

With `Cc1cc(CN(C)C2CCCc3ccccc32)no1` (stereo not given), the activity change, negative = inhibition in experiment [1] was -5.27%; in experiment [2], -3.22%; in experiment [3], -1.82%; in experiment [4], -15.2%; in experiment [5], -4.47%.

Regarding `COC(=O)C1(Cc2ccc(O)cc2)OC(=O)C(OC)=C1c1ccc(O)cc1` (stereo not given), the activity change, negative = inhibition in experiment [1] is 0%; in experiment [2], 2.18%; in experiment [3] it was -1.93%; in experiment [4], -12.6%; in experiment [5], 3.66%.

As for `CC(C)Cn1c(=O)c2ccccc2n2c(CCC(=O)Nc3ccc(F)c(F)c3)nnc12`, the activity change, negative = inhibition is -12.3% in experiment [1]; 0.942% in experiment [2]; -2.67% in experiment [3]; -30.5% in experiment [4]; -6.91% in experiment [5].

For `CC(C)C(CO)Nc1nc(Nc2cc(N)cc(Cl)c2)c2ncn(C(C)C)c2n1` (stereo not given), the activity change, negative = inhibition in experiment [1] is -7.82%; in experiment [2] it was -1.43%; in experiment [3], -3.08%; in experiment [4], -36.7%; in experiment [5] it was -3.87%.

For the compound `CCN1C(=O)c2cc(C(=O)Nc3ccc(Cl)cc3C)nn2CC1(C)C(=O)NC1CCCC1` (stereo not given), the activity change, negative = inhibition in experiment [1] is -0.255%; in experiment [2] it was -0.152%; in experiment [3] it was -2.7%; in experiment [4], -2.88%; in experiment [5] it was -2.5%.

As to `CCCNS(=O)(=O)c1ccc(Cl)c(-c2nnc(-c3ccccc3)o2)c1`, the activity change, negative = inhibition in experiment [1] amounted to 2.91%; in experiment [2], 1.51%; in experiment [3], 4.05%; in experiment [4], 3%; in experiment [5], 2.21%.

For the origin of these results see PubChem BioAssay AID1745853 (National Center for Advancing Translational Sciences (NCATS), 2022).
